{"source": "PubChem BioAssay AID588855", "about": "(National Center for Advancing Translational Sciences (NCATS), 2011)", "note": "In all, about 410,000 compounds went through this assay and about 5,000 (1.2%) were called active. The inconclusive results got no clear call from the source; some entries with a clear call stand among them for comparison. The call rests on the fitted dose curve; in most records, active means well fitted inhibition curve with a large enough effect; inconclusive means small, poorly fitted or top-dose-only effect; inactive means no such curve, though single readings can be large or run the other way. A potency beside an inconclusive call is a rough fit, not a confirmed value. On the % scale 0 is the no-effect control and ±100 the full control effect; potency means the concentration at half of the fitted maximal effect; tags describe the fitted curve by direction and shape."}
{"assay": "qHTS for Inhibitors of TGF-b; further: nearly all actives have a fitted effect of over 65% in size", "conditions": "HepG2 CAGA-GFP TGF-b/SMAD3 reporter, GFP fluorescence, 18 h, TGF-beta stimulated, 500 pg/mL final; series mostly up to 46.1 µM; activity, negative = inhibition: at the top concentration", "in_short": "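HEPG2 CAGA-GFP, 1000 cells/well; 2 h settle, 37 C; cpd via pin tool; TGF-b 500 pg/mL final; 18 h, 37 C; GFP imaging ex488/em500-530; %Activity normalised to -TGF-b and +DMSO controls; CRC fit, curve class.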"}
{"smiles": "COCOCCn1cc(CN2CCS(=O)(=O)N(Cc3ccc(-c4ccc(F)cc4)cc3)C(C(C)C)C2=O)nn1", "note": "(centres undefined)", "Potency": "inconclusive: 11.2 µM [inhibitor, partial curve]"}
{"smiles": "O=C(CN1CCc2ccccc2C1)c1cccs1", "Potency": "inconclusive: 35.5 µM [inhibitor, single point]"}
{"smiles": "C=C(C)COc1ccc(-c2[nH]ncc2Oc2cccc(OC)c2)c(O)c1", "Potency": "inconclusive: 35.5 µM [inhibitor, single point]"}
{"smiles": "O=Cc1cn(-c2ccccc2)nc1-c1ccc2c(c1)OCCO2", "Potency": "inconclusive: 35.5 µM [inhibitor, single point]"}
{"smiles": "CCN1CCN(c2nc3ccccc3nc2C(C#N)S(=O)(=O)c2ccc(C)cc2)CC1", "note": "(centres undefined)", "Potency": "inconclusive: 25.1 µM [inhibitor, single point]"}
{"smiles": "Clc1ccc(-n2ncc3c(NC4CCCC4)ncnc32)cc1", "activity, negative = inhibition": "inactive: 17.7%"}
{"smiles": "CCN(CC)S(=O)(=O)c1ccc2c(c1)N(CC(=O)N1CCN(c3cccc(C)c3C)CC1)C(=O)CO2", "Potency": "inconclusive: 20 µM [inhibitor, single point]"}
{"smiles": "Cc1c(CNC2CCCCC2)c(C(=O)O)c(C)n1Cc1ccc(Cl)cc1", "activity, negative = inhibition": "inactive: -29.6%"}
{"smiles": "O=C(CSc1ncccn1)NN=C1CCCCCC1", "activity, negative = inhibition": "inactive: -14%"}
{"smiles": "COc1ccccc1-n1cnnc1SC(C)C(=O)Nc1ccc(NC(C)=O)cc1", "note": "(centres undefined)", "Potency": "inconclusive: 1.26 µM [inhibitor, full curve, poor fit]"}
{"smiles": "Cn1nnnc1SCCCNCc1ccccc1OCc1ccc(Cl)cc1", "Potency": "inconclusive: 35.5 µM [inhibitor, single point]"}
{"smiles": "Cc1cc(NC(=O)CSc2ncn(-c3ccccc3)n2)no1", "Potency": "inconclusive: 2 µM [inhibitor, partial curve, poor fit]"}
{"smiles": "CC(C)(C)c1ccc(C2CC2C(=O)N/N=C\\c2ccc[nH]2)cc1", "note": "(centres undefined)", "Potency": "inconclusive: 10 µM [inhibitor, partial curve, poor fit]"}
{"smiles": "Cc1ccc(S(=O)(=O)N[C@H](C(=O)N2CCC(C(=O)N[C@@H](CC(=O)O)C(=O)O)CC2)C(C)C)cc1", "activity, negative = inhibition": "inactive: 2.74%"}
{"smiles": "C/C(=N\\N)c1c(-c2ccccc2)c2cc(C)ccc2[nH]c1=O", "Potency": "inconclusive: 2 µM [inhibitor, full curve]"}
{"smiles": "Cc1nc(NC(=O)C2CC2)sc1C(=O)Nc1ccc(Br)cc1", "Potency": "inconclusive: 35.5 µM [inhibitor, single point]"}
{"smiles": "CCOC(=O)C1CCN(C(=O)Cn2nc(CC)n3c(cc4sccc43)c2=O)CC1", "Potency": "inconclusive: 7.08 µM [inhibitor, partial curve]"}
{"smiles": "O=C(NCc1ccccc1Cl)c1ccc(CS(=O)(=O)c2ccc(Br)cc2)o1", "Potency": "inconclusive: 22.4 µM [inhibitor, partial curve, poor fit]"}
{"smiles": "COc1ccc(Cl)cc1C=CC=NNS(=O)(=O)c1ccc(C)cc1", "activity, negative = inhibition": "inactive: -10.8%"}
{"smiles": "CCn1nc(NS(=O)(=O)c2ccccc2)c2cc3cccc(C)c3nc21", "Potency": "inconclusive: 11.2 µM [inhibitor, single point]"}
{"smiles": "COc1ccc(OC)c(S(=O)(=O)n2cnc3ccccc32)c1", "activity, negative = inhibition": "inactive: 2.44%"}
{"smiles": "O=C(CSc1nnc(COc2ccc(Br)cc2)o1)N1CCOCC1", "activity, negative = inhibition": "inactive: -2.49%"}
{"smiles": "CCNC(=O)c1sc2cc(C)ccc2c1Cl", "Potency": "inconclusive: 11.2 µM [inhibitor, partial curve, poor fit]"}
{"smiles": "COCCCN(C(=O)CSCC(=O)Nc1cccc(C)c1)c1c(N)n(Cc2ccccc2)c(=O)[nH]c1=O", "activity, negative = inhibition": "inactive: -1.43%"}
{"smiles": "CCOc1ccccc1CNC(=O)C1CCCN(c2nnc(C)c3c(C)n(-c4ccccc4)nc23)C1", "note": "(centres undefined)", "Potency": "inconclusive: 14.1 µM [inhibitor, partial curve]"}
{"smiles": "CCN(CC)C(=O)c1ccc2c(c1)N(Cc1ccc(C(F)(F)F)cc1)C(=O)c1ccccc1S2", "Potency": "inconclusive: 11.2 µM [inhibitor, partial curve]"}
{"smiles": "Cc1ccc(N2C(=O)CCSC23C(=O)N(Cc2ccccc2)c2ccccc23)cc1", "note": "(centres undefined)", "Potency": "inconclusive: 3.98 µM [inhibitor, partial curve, poor fit]"}
{"smiles": "CCOC(=O)c1[nH]c(C)c(C(=O)N2CCN(c3ccc(F)cc3)CC2)c1C", "Potency": "inconclusive: 35.5 µM [inhibitor, single point]"}
{"smiles": "Cc1ccc(NC(=O)Nc2nnc(N3CCCC3)s2)cc1C", "Potency": "inconclusive: 5.62 µM [inhibitor, single point]"}
{"smiles": "CN1CCN(C(=O)C(=O)Nc2c3c(nn2-c2ccc(Cl)cc2)CSC3)CC1", "activity, negative = inhibition": "inactive: -7.09%"}
{"smiles": "C/C(=N\\N1C(=O)c2ccccc2NC1c1ccccc1)c1ccccc1O", "note": "(centres undefined)", "Potency": "inconclusive: 6.31 µM [inhibitor, single point]"}
{"smiles": "O=C(NCCC1=CCCCC1)c1ccc(Cl)c(S(=O)(=O)N2CCCCC2)c1", "Potency": "inconclusive: 22.4 µM [inhibitor, single point]"}
{"smiles": "COc1ccc(N2CCN(C(=O)C3CCN(S(=O)(=O)N4CCOCC4)CC3)CC2)cc1", "activity, negative = inhibition": "inactive: -27.3%"}
{"smiles": "NC(=O)c1nsc(C(=O)N(Cc2ccco2)C(C(=O)NC2CCCC2)c2ccc(O)cc2)c1N", "note": "(centres undefined)", "Potency": "inconclusive: 15.8 µM [inhibitor, single point]"}
